The record followed here is publication PMC3081989 (Biochemistry, 2010).

Experiment [1] addresses T1, human Retinoid X Receptor alpha-Ligand Binding Domain (hRXRα-LBD, T223–T462) homodimer (human, UniProt P19793 223-462).
T1 sequence: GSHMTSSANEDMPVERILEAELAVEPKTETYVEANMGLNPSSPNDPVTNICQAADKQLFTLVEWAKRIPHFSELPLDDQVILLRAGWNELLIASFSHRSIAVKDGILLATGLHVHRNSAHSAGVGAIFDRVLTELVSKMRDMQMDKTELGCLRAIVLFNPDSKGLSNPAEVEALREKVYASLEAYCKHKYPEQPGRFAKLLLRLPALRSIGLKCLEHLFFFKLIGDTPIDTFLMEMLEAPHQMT
The experiment is described as follows: ITC.

Experiment [2] concerns the target T1, human Retinoid X Receptor alpha-Ligand …. The experiment is described as follows: ITC. The source holds these as a separate data set. For orientation: Isothermal titration calorimetry measures the heat released or taken up as one component is titrated into another.
The target is the same in experiment [3]. The experiment can be described thus: ITC. This is another data set of the same source.
For experiment [4] the target is unchanged. The experiment can be described thus: far-UV CD titration.
The target is the same in experiment [5]. The experiment can be described thus: ITC. The source holds these as a separate data set.

Where two headings read alike, the source gives them in different places.

Consider KHKILHRLLQDSS, for which the dH is -13.65 ± 0.04 kcal/mol in experiment [1], -11.13 ± 0.03 kcal/mol in experiment [2], -9.15 ± 0.03 kcal/mol in experiment [3] and -6.78 ± 0.02 kcal/mol in experiment [5]. Further, the stoichiometry N – broadly, a count of units in the complex or per binding partner – in experiment [1] worked out at 0.93; in experiment [2], 0.95; in experiment [3], 0.92; in experiment [5] it was 0.98. Also, the Kd (usually the constant that tells how readily two partners part at equilibrium) is 720 ± 10 nM in experiment [2], 550 ± 20 nM in experiment [3], around 900 nM in experiment [4] and 470 ± 20 nM in experiment [5].
